Assay results reported in the BET-seq Pho4 binding data (Le et al. 2018).
The list shows a part of the results. Values were computed here from the reads of four pooled replicates and scatter widely.

Target: T1, Pho4 (S. cerevisiae) (UniProt P07270)
T1 sequence: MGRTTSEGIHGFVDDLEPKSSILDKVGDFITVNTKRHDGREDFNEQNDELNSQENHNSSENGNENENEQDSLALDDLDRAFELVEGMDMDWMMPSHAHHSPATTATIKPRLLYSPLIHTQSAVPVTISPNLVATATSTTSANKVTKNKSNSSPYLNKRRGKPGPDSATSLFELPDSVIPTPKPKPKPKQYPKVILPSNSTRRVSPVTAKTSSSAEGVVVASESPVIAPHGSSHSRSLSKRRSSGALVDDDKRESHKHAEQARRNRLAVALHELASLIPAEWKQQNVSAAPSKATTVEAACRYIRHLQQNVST
Test: relative binding free energy (BET-seq); higher = weaker binding
Conditions: reference: library average

| Sequence | relative binding free energy [kcal/mol] |
| --- | --- |
| TTCGTCACGTGGGGTT | -0.07 |
| TGGAACACGTGTCTGT | 0.07 |
| AGTATCACGTGTTATT | 0.05 |
| GTGGGCACGTGTTGAT | 0.02 |
| GGCGTCACGTGGTCGT | 0.05 |
| CATGTCACGTGGTTTA | 0.02 |
| CGGGGCACGTGTTGAC | 0.03 |
| CTATGCACGTGCTGGT | -0.11 |
| TTTCGCACGTGGTTGG | 0.04 |
| AATATCACGTGGTTAA | 0.07 |
| AAGTGCACGTGATGGC | 0.19 |
| TGTGGCACGTGCCTTT | -0.13 |
| GTGATCACGTGAGGGC | 0.31 |
| AGGGTCACGTGCAGGG | 0.13 |
| TGGTTCACGTGCAGTA | 0.28 |
| TGGCACACGTGTGGGA | 0.07 |
| GGACTCACGTGGATGG | 0.21 |
| TGGTCCACGTGGAACG | 0.24 |
| AATGGCACGTGATTGG | 0.01 |
| CAGAGCACGTGAGGAG | 0.23 |
| TATTTCACGTGCTTTA | 0.22 |
| GATTGCACGTGTGTTG | 0.14 |
| ATACGCACGTGGTGTA | -0.26 |
| GTCCTCACGTGGGGGT | -0.02 |
| TGCAGCACGTGTCGTT | -0.05 |

| Sequence | relative binding free energy [kcal/mol] |
| --- | --- |
| TTGGTCACGTGGAGCT | 0.1 |
| ATTTTCACGTGATAGA | 0.34 |
| GGGGTCACGTGTACGA | 0.06 |
| AGATGCACGTGGGAGT | -0.07 |
| TGCATCACGTGGTAGG | 0.02 |
| GCGTTCACGTGGTGGA | 0.32 |
| ATGGCCACGTGGGGAA | -0.11 |
| GTGTACACGTGTGAAT | 0.09 |
| TTAGTCACGTGGGTCC | 0.07 |
| CGTGGCACGTGTAGGA | 0.01 |
| TTGGACACGTGGGACT | 0.06 |
| GACGTCACGTGATTTT | 0.3 |
| AGGGTCACGTGATTGT | 0.27 |
| GTGAACACGTGGTCAG | -0.01 |
| GGTAACACGTGGATAA | 0.17 |
| TAAAACACGTGATGTG | 0.11 |
| TTAAGCACGTGGTATG | -0.13 |
| GTCTTCACGTGTCGGT | 0.27 |
| ATCTGCACGTGTAGTT | -0.04 |
| GTCTTCACGTGTGGTT | 0.23 |
| GTTAACACGTGGAGAT | 0 |
| GTAGGCACGTGCGAGG | -0.1 |
| TGGGGCACGTGGCAGC | -0.2 |
| TGGGCCACGTGGGGCA | -0.25 |
| ATATGCACGTGGTGCT | -0.21 |

| Sequence | relative binding free energy [kcal/mol] |
| --- | --- |
| TGATGCACGTGAGCAG | 0.24 |
| CTTCGCACGTGGGGGT | -0.25 |
| AGGGGCACGTGAGCGG | -0.02 |
| AGGTTCACGTGTCTTA | 0.36 |
| TAGTGCACGTGGTGCT | -0.19 |
| CTGTGCACGTGTGTGC | 0.02 |
| TTTAACACGTGTTTTA | 0 |
| AGAGTCACGTGCAGGG | 0.02 |
| AGTGCCACGTGGGAAG | 0.01 |
| AGCGACACGTGGAGTG | 0.05 |
| TAATACACGTGGAGTA | 0.09 |
| TCTGTCACGTGGATGT | 0.07 |
| ATTGTCACGTGTATAA | 0.06 |
| GATAGCACGTGGGCAG | -0.04 |
| GATGTCACGTGCTTTT | 0.16 |
| TGGCACACGTGTCTGG | -0.01 |
| CTGATCACGTGTGGCG | 0.15 |
| TGGGACACGTGGAGGG | 0.09 |
| GGGGGCACGTGTATAA | 0.03 |
| GGGATCACGTGCGCGG | 0 |
| AGTGGCACGTGGCTGC | -0.28 |
| AAATGCACGTGGTTTT | -0.02 |
| GGGGACACGTGGGTGT | -0.03 |
